# Measurements reported in the supplement of paper PMC11417369.
# The list shows a part of the results.
# Tested on: PF3D7_0420300 AP2 domain 1 (GST-tagged)
# Assay: gcPBM binding intensity (ln(normalized median fluorescence intensity)); higher = stronger DNA binding
# How it was run: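 Each value is the highest Masliner-normalised natural-log median intensity across replicate spots of either orientation of a probe. The probes were primer-extended double-stranded 36-bp intergenic genomic sequences on an Agilent 4 × 180k array, alongside negative controls, exposed for 1 h to GST-tagged P. falciparum DNA-binding domains expressed in E. coli. Bound protein was picked up with Alexa488 anti-GST antibody and scanned at 488 nm.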
row,Sequence,gcPBM binding intensity (ln)
1,TAGAAGCATCATTTTACACACATGCAAATGTAAAAT [CACACA_site1893],9.33
2,AAAAATAAGAGCGTAGCACACACGCATTTTATAAAT [CACACA_site8147],9.3
3,TTAAATTATTAGAGAGTGCATTATATATATTATACA [GTGCAC_site9711],8.98
4,TACTGTTATAAATGTGGTACTAATATTATACATATA [XGTACX_site5116],9.25
5,GTGTGATGGTCCAATATACACACTTAAAAAAAAAAA [CACACA_site2426],9.03
6,GTGGAATAATATATATGTACATATTTAAAATATTTA [XGTACX_site3499],9.08
7,AATGGTCTTTTCAACACACGTACATAAAAATATTAT [CACACA_site2571],9.44
8,ATTTTTTTACAAAAATGTACACATGAAATATGTAAT [XGTACX_site1372],9.15
9,TGACAACATAGAGGGGCACACACATATATACATAAA [CACACA_site8550],9.87
10,TAAAAGTATATATATACACACATAAATATATCTGTA [CACACA_site4537],9.25
11,TATTATTTTAGAATGCGTACTTATAAAATATTTTAT [XGTACX_site867],9.12
12,ATATATATATATATTACACACTTTTTCTTTTTTTTT [CACACA_site2780],9.47
13,ATAATTCCAAGAATTTCATATATCTGAATTTTAGGT [GTGCAC_negctrl_site283],8.96
14,AATAAACATAAATAAAAATTATAAAATATATATATG [CACACA_negctrl_site1709],9.18
15,TTTACATTTCAGTAGACACACAAAAAATAATACTAA [CACACA_site512],9.28
16,GAAAAAAAAGCTTGCACACGTATTTGCTTTATGTAT [CACACA_site4931],9.47
17,TACATATATATATTATGTACATAAGGTTTGAGTTCA [XGTACX_site2726],9.33
18,TTTTTGGTATTATTGTGTACTTATAAATAATATAAT [XGTACX_site4019],9.31
19,ATATAAAATATTACGTGTACACATAAATAAAAATAA [XGTACX_site3746],9.41
20,ATATATATAAATAATTGTACATAATAATAAAATATA [XGTACX_site4839],9.31
21,ATATTTTGTAACTATACACACATATTTATATTATAA [CACACA_site7433],9.58
22,CAAGTAGATATTATACGTACATATATATATATATAT [XGTACX_site8349],9.11

row,Sequence,gcPBM binding intensity (ln)
1,TTTTATACATATTTTACACACTAAAATATACCTATA [CACACA_site6286],9.47
2,TAAAAAATATACATTCGTACATATATATTATATATA [XGTACX_site7918],9.11
3,ACAAAATAAAACATCTGTACATATTATTATTATAAG [XGTACX_site4802],9.2
4,TATATTTATAACAACACACACAGATCATAAAACTGC [CACACA_site7086],10
5,AAAAAAAAAAAAAAAACACACACATGCACATCATAT [CACACA_site8083],9.86
6,CAAAAGTAAGCACGCACACACAACATGAAATAAAAT [CACACA_site165],9.97
7,TATACACTTATTGGTGGTACAATATATAAATATATG [XGTACX_site3289],9.12
8,TTTTGATCTGAAGGAACCTAAAAAGGGAAGAGAAAA [CACACA_negctrl_site1656],9.1
9,TATATATATATTTATACACACACATATATTTATATA [CACACA_site8054],9.59
10,TTTTTAATATATTAGGTGCACAATAATACACTTTAT,9.09
11,ATTAGTATAATGTAACTTAGTTAATAGTGCTAATAT [CACACA_negctrl_site764],9.41
12,TTTTTTTAATGATATTGTACATTAATAAAAAATATG [XGTACX_site1719],8.81
13,ATTTGATATATAATAATACACACTTACATAATTAAT [CACACA_site290],9.42
14,TCTTTTTCAAGATGACGTACTTAGATTAATATAAAA [XGTACX_site3931],8.86
15,ATATGATCATTTTATCATTTTGCTTTTTCTTTTTTT [CACACA_negctrl_site1325],9.45
16,AATTTTGGAACGTGCACACATATGTAATATATATAT [CACACA_site3067],9.53
17,ATCGTGTTAAATGTTGTGCACATATAAATTACAAAA [GTGCAC_site9822],9.23
18,TAAATATATAATAAATGTACATATTAATATTATGGT [XGTACX_site1498],9.3
19,AAAAAAAATTTAATTGCACACAGGAAAATATAATTT [CACACA_site3810],9.48
20,TAAATACAGAGGAAAATACACACGTATATATATAAA [CACACA_site3410],9.65
21,TTAATACCCAGACACACACACACAAAATAAAATACA [CACACA_site7968],10.1
22,TATAAATATACAAACACACATACAAACATATATATA [CACACA_site1120],9.91

row,Sequence,gcPBM binding intensity (ln)
1,AAAAAAAAAAAAAAAAGTACAAAAAGAAGAAAAAAA [XGTACX_site6521],9.45
2,TTTTTTTTTTTTTTTTTTTTTTTATGTTCTTAAAAA [GTGCAC_negctrl_site62],8.31
3,TTTTTTTTTTTTACGTGTACATAAATGTTAAGTAAT [XGTACX_site3901],9.11
4,AAAATATAGGTATGCACACACATATACTTCTGTGCA [CACACA_site1409],9.62
5,TATAAATATTTATGTACACACATATACATGTTGAAT [CACACA_site5684],9.5
6,TTATATTCTTTTCTCTTTCTACTTTTTTTTTTTTTT [XGTACX_negctrl_site317],9.15
7,AAGAAAAACTTATATATATATATATATATATATATA [TGCATGCA_negctrl_site466],9.31
8,TCATACATGTATATGTGTACATATAATGTATATTCC [XGTACX_site6082],9.13
9,TTATACACAAAAAAAAAAATATATATATATATATAT [XGTACX_negctrl_site5],9.04
10,TGTTGTATTGAAGCTAAAAAATGAGGCAAAAAAAAA [CACACA_negctrl_site1189],9.15
11,ATTTATGAGTAATACACACACTTGTGGATATATTAC [CACACA_site7735],9.55
12,ACTTCAAAAAAAAAAAAATATATATATATATATTAT [GTGCAC_negctrl_site158],8.82
13,TTTATATAATATAAATTTTTTTTGCAGTAATAAAAA [TGCATGCA_negctrl_site570],8.57
14,AGAGAAAAAAAAAATTGTACGTATGTAATAATATGC [XGTACX_site2981],9.55
15,AGATATTATTTATATATTTATATATATATATAGATA [TGCATGCA_negctrl_site77],8.93
16,TAAATATCAAGACACACACACAAAAGTGAATAAATA [CACACA_site7723],9.9
17,TTCTTTTTAAATTACACACACATATATATATGTATA [CACACA_site3515],9.76
18,AAAGTAAAAGAAAGCACACACACATGGATTTATGTA [CACACA_site5997],10.1
19,TATTTACACCCATGCGCACACATAAATAAATAATAG [CACACA_site5350],9.44
20,TATATATATGTATGTGGTACTTATATTATATACATA [XGTACX_site4550],9.27
21,ATACATATGGTGGATCGTACATATATATAATATGTA [XGTACX_site8631],9.22
22,ACAGAAAATAAAATTTGTACATATATAGAATAAAGA [XGTACX_site3014],9.43

row,Sequence,gcPBM binding intensity (ln)
1,CCATGTAGTGAATAGGTGCATATCAAAAAAAAAAAA,9.09
2,ACAAAACTGTCTTTCACACAGAAATAAAAAAAAAAA [CACACA_site5829],8.83
3,TGATAAGGATGTGAATTACTCAAAGGAAGTAATCAT [CACACA_negctrl_site1432],9.12
4,AAATTTCATGGGTATTGTACATAATTTTATTATATA [XGTACX_site4988],9.42
5,ACATAAGATGAAAAATGTACATTCAAAAAATGAAAT [XGTACX_site3227],9.26
6,TTTTAAATATGCCATACACACTACTATATAATAAAT [CACACA_site5119],9.37
7,AAAAAAAAAAAATATTGTAGAATATGATGACTTTGT [GTGCAC_negctrl_site554],9.15
8,ATTTTATTTTCATATGAACACACATATATATATTAT [CACACA_site8741],9.64
9,CTGCGTTTAATATGCGTGCACCTTGGTTTTATATCT [GTGCAC_site9525],9.55
10,GTTAATATACTTAATACACACACGAATATATATAAA [CACACA_site1181],9.86
11,ATTCTATACATATATATACACACGTAGTTTCTATTT [CACACA_site2223],9.55
12,AAAAAAAAAAAGAAGGAAACATTTGACCAAAAATAT [GTGCAC_negctrl_site404],9.46
13,ATATACTTACATATTACACACAATATTTTTAAATGT [CACACA_site3627],9.52
14,AAGGGAATATACCTTACACACAAAAATGCAGATATA [CACACA_site1451],9.75
15,AAAGTAAAAAAAAAAACATGCACATATTTACTTTAT [TGCATGCA_site849],9.39
16,TTTTTTTTGGTTTTCATGCACACAATTTATAAATCT [CACACA_site3107],9.5
17,CTAATCAAAATAAATTAACACACAATTTTAATATTG [CACACA_site7887],9.33
18,ATAAAACATAAAAATCGTACAAAGGAGGATATAAGG [XGTACX_site420],9.74
19,TGGAGGTCAGTTCACAGTACCCAGAAAACTCTACGA [XGTACX_site2561],9.01
20,AAAATGATGTTAATTACACACATCATCTCATAAACA [CACACA_site3017],9.34
21,ATTATTTATTATTTCTGTACGTATAAAAATAACATT [XGTACX_site1671],9.28
22,ATTTAAATTATAAAATGTACATTTAACAAATTTTAT [XGTACX_site770],8.94
